PubChem BioAssay AID1347417 (National Center for Advancing Translational Sciences (NCATS), 2020)
Hit rate of the full screen: of about 120,000 compounds, about 5,300 (4.4%) were called active. Inconclusive results, whose numbers are uncertain, are shown with a selection of clear calls. Calls come from the whole dose curve; as a rule, active = well fitted inhibition curve with a large enough effect; inconclusive = small, poorly fitted or top-dose-only effect; inactive = no such curve, though single readings can be large or run the other way. Potencies beside an inconclusive call are fits to weak or partial responses and may not hold up.

Experiment: qHTS Primary assay for Inhibitors of Plasmodium falciparum Dd2 growth in vitro; note: nearly all actives have a fitted effect of over 65% in size;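 for activity, negative = inhibition: plate controls were DMSO vehicle for no effect and reference drug for full effect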
Conditions: P. falciparum Dd2 growth, SYBR Green, 72 h; activity, negative = inhibition: at 28.9 µM (top of the series) unless noted; series mostly up to 28.9 µM
How it was run: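 Readout: SYBR Green fluorescence, 485 nm excitation, 535 nm emission, after ~16 h lysis at 37C. Before that, Dd2-infected red cells (2.5% hematocrit) grew 72 h with compound, 29 uM top final concentration.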
Potency is the fitted concentration of half-maximal effect; tags give direction and shape of the fitted curve.

| SMILES | Potency | activity, negative = inhibition | outcome |
| --- | --- | --- | --- |
| CCOc1ccc(CN2CCC3(Cc4ccccc4CNC3=O)C2)cc1 (centres undefined) | inconclusive: 10 µM [inhibitor, single point] |  |  |
| CC1(c2ccccc2)N(Cc2ccccc2F)C(=O)OC12CCN(C(=O)COc1ccccc1C(N)=O)CC2 (centres undefined) | inconclusive: 10 µM [inhibitor, single point] |  |  |
| CCOC(=O)c1c(NC(=O)/C=C/c2ccc(C)cc2)sc(C(C)=O)c1C |  | inactive: 7.02% |  |
| CC1=C[C@@H](CNC2CC2)[C@H](C(C)C)C[C@H]1Cc1nnc(-c2ccc(C)cc2)o1 | inconclusive: 0.398 µM [inhibitor, full curve, poor fit] |  |  |
| CN(CC1CCOCC1)C(=O)c1ccc(F)c(F)c1 |  | inactive: -13.1% |  |
| COc1cc(C(CC(=O)Nc2cccc(C(C)=O)c2)N2Cc3ccccc3C2=O)cc(OC)c1OC (centres undefined) | active: 10 µM |  |  |
| CC(=O)Nc1nonc1-c1nnc(SCC(=O)Nc2cc(Cl)ccc2C)n1C | inconclusive: 7.94 µM [inhibitor, partial curve, poor fit] |  |  |
| COc1nc2nc(CC3CC3)n(C)c2cc1-c1cccc(NC(C)=O)c1 | inconclusive: 8.91 µM [inhibitor, partial curve, poor fit] |  |  |
| COc1cccc2cc(-c3nc(Nc4cccc(C)c4C)sc3C)c(=O)oc12 |  | inactive: 4.88% |  |
| COC(=O)CNC(=O)N1CCOc2ccc(CN3CCc4ccccc4C3)cc2C1 | inconclusive: 11.2 µM [inhibitor, single point] |  |  |
| O=C(C1CC1)N1CCC(c2nc(-c3ccc4nc[nH]c4c3)no2)CC1 | inconclusive: 20 µM [inhibitor, single point] |  |  |
| CCn1cc(Cl)c(C(=O)N2CCc3c(nc(-c4ccccc4)[nH]c3=O)C2)n1 | inconclusive: 7.08 µM [inhibitor, partial curve, poor fit] |  |  |
| O=C1NCCCCCN(C(=O)NCc2ccccc2)[C@H]2CCCC[C@@H]12 |  | inactive: -0.446% |  |
| O=C(NCc1ccccc1)c1ccccc1OC1CN(Cc2ccsc2)C1 | active: 3.98 µM |  |  |
| O=[S+]([O-])(c1ccccc1)N1CC2(CCCN2C2COC2)Cc2ccccc21 (centres undefined) | inconclusive: 8.91 µM [inhibitor, single point] |  |  |
| COc1cccc(NC(=O)O[C@@H]2CC[C@]3(C)C(CC[C@@H](O)[C@H]3CC(=O)N3CCCC3)[C@]2(C)CO)c1 (some centres undefined) | inconclusive: 0.891 µM [inhibitor, partial curve, poor fit] |  |  |
| c1ccc([C@@H]2CNC[C@H]2COCC2CC2)nc1 | inconclusive: 10 µM [inhibitor, single point] |  |  |
| O=C(c1ccccc1)N1CCCC(c2nc3c(nnn3Cc3ccc(F)cc3F)c(=O)[nH]2)C1 (centres undefined) | inconclusive: 17.8 µM [inhibitor, single point] |  |  |
| Cc1nc2cccnc2n1C1CCN(C(=O)Nc2ccccc2)CC1 |  | inactive: 35% |  |
| Fc1cc(F)cc(Cc2nc3nccc(-c4cccnc4)n3n2)c1 |  | inactive: -13.5% |  |
| COC(=O)c1cccc(C(=O)N2CCC(Cc3nc(-c4ccc(OC)cc4)no3)CC2)c1 | inconclusive: 11.2 µM [inhibitor, single point] |  |  |
| COc1cc(C(=O)Nc2ccc(-n3c(C)nc4ccccc4c3=O)cc2)cc(OC)c1OC |  | inactive: -5.62% |  |

| SMILES | Potency | activity, negative = inhibition | outcome |
| --- | --- | --- | --- |
| FC(F)(F)Oc1ccc(CN2CCC3(CC2)CC(c2cccc(C(F)(F)F)c2)=NO3)cc1 |  | inactive: -6.25% |  |
| CC[C@H]1CN(S(=O)(=O)c2ccc(OC)cc2)CC[C@H]1CC(=O)Nc1nccs1 | inconclusive: 31.6 µM [inhibitor, single point] |  |  |
| O=C(CSc1ccccn1)NC1CC(=O)N(C2Cc3ccccc3C2)C1 (centres undefined) |  | inactive: -2.66% |  |
| O=C(CCC1CCCC1)N1CC2CC(C1)[C@H]1CCCC(=O)N1C2 (some centres undefined) |  | inactive: 14.1% |  |
| CCOC(=O)C1CCN(c2nc3c(S(=O)(=O)c4ccccc4)nnn3c3ccc(Cl)cc23)CC1 | active: 8.91 µM |  |  |
| Cc1ccc(NC(=O)c2ccc(Cl)cc2Cl)c(C(=O)c2ccccc2)c1 | inconclusive: 17.8 µM [inhibitor, single point] |  |  |
| Cc1cccc(NC(=O)CN2C(=O)NC3(CCS(=O)(=O)CC3)C2=O)c1 |  |  | inactive |
| CCC(CC)C(=O)Nc1ccccc1SCc1cc(=O)c2cccc(C)c2[nH]1 |  | inactive: 30.2% |  |
| NCc1cccc(-c2cc(C(F)(F)F)ccc2Cl)c1 | active: 10 µM |  |  |
| COCCCNC(=O)C1CCC(Cn2c(=O)c3sccc3n(C)c2=O)CC1 (centres undefined) | inconclusive: 7.08 µM [inhibitor, partial curve] |  |  |
| Cc1cccc(C(=O)NCCc2nc3ccccc3n2Cc2ccc(Cl)cc2)c1 | inconclusive: 11.2 µM [inhibitor, single point] |  |  |
| Cc1ccc(OC(C)C(=O)N2CCN(CCc3ccncc3)CC2)cc1C (centres undefined) | inconclusive: 20 µM [inhibitor, single point] |  |  |
| O=C(Nc1nc2c(s1)CCCC2)C1CC(=O)N(c2n[nH]c3cccc(F)c23)C1 (centres undefined) |  | inactive: -13.1% |  |
| CC(C)(C)c1nc(C(=O)NCc2cccnc2)n2ccccc12 | inconclusive: 10 µM [inhibitor, single point] |  |  |
| COC1C(=O)N(c2cccc(F)c2)C12CCN(C(=O)c1cccnc1C)CC2 (centres undefined) | inconclusive: 10 µM [inhibitor, partial curve, poor fit] |  |  |
| CCOC(=O)c1ccc2nc(C)cc(Nc3ccc(OC(C)C)cc3)c2c1 | inconclusive: 3.98 µM [inhibitor, single point] |  |  |
| Cc1ccc(-n2cnc3cc(C(=O)NCc4ccc(F)cc4)ccc32)c(C)c1 | inconclusive: 17.8 µM [inhibitor, single point] |  |  |
| Cc1nc(-c2cccc(Cl)c2)n(CC(=O)Nc2ccc(F)cc2)c(=O)c1CCO | inconclusive: 3.98 µM [inhibitor, single point] |  |  |
| O=C1NCCCc2[nH]c(-c3cnn(-c4cccc(F)c4)c3)nc21 |  | inactive: -25.7% |  |
| Cc1ccsc1C(=O)N1CCCn2cc(-c3cccc(C#N)c3)nc21 | inconclusive: 1.41 µM [inhibitor, partial curve, poor fit] |  |  |
| Cc1ccc(C(=O)NCCn2cccc2-c2nc(-c3ccc4c(c3)OCO4)no2)cc1 | inconclusive: 6.31 µM [inhibitor, partial curve, poor fit] |  |  |
| CC(=O)N[C@@H]1CN(C(=O)CCCS(N)(=O)=O)C[C@H]1c1ccc(C)cc1 |  | inactive: -2.26% |  |
